Data published in US5858992A, “Non-reducing saccharides, their preparation and use” (Kabushiki Kaisha Hayashibara Seibutsu Kagaku Kenkyujo, priority 1995, dated 1999).

Legend:
[1] = system: bifid bacteria; assay: Influence on growth-promoting activity for bifid bacteria in vivo (healthy volunteers, feces); parameters: species or system human
Protocol: The weight of daily feces before and after the 14-day administration tests, the relative change of feces' weight, the feces' pH, the total number of microorganisms per g of feces, the percentage of the number of bifid bacteria to the total number of microorganisms in feces, and the relative change of the total number of bifid bacteria were measured, followed by calculating the mean value of the five volunteers. Among these measurements, the total number of microorganisms was determined in accordance with the method as reported in "A Color Atlas of Anaerobic Bacteria", pp.53-65 (1984), edited by Tomotari MITSUOKA, published by Kabushiki Kaisha Sobunsha, Tokyo, Japan (1984): The colonies grown in 13 different types of media excluding M10 medium were judged for which genus they belong to and counted for cells. The cell count obtained with a specific medium, which gave the highest number of microorganisms for each genus, was determined to be a real cell count. The total cell count of microorganisms of all the genera was determined to be the total number of microorganisms in each volunteer's feces.

[2] = system: Bifidobacterium adolescentis JCM 1275; assay: Assimilation test by intestinal microorganism; assay type: cell-based; settings: 0.5 w/v % saccharide in PYF broth, 37° C., 96 hours; free of sugar: -
[3] = system: Bifidobacterium animalis JCM 1190; assay: Assimilation test by intestinal microorganism; assay type: cell-based; settings: 0.5 w/v % saccharide in PYF broth, 37° C., 96 hours; free of sugar: -
[4] = system: Bifidobacterium bifidum JCM 1255; assay: Assimilation test by intestinal microorganism; assay type: cell-based; settings: 0.5 w/v % saccharide in PYF broth, 37° C., 96 hours; free of sugar: -
[5] = system: Bifidobacterium breve JCM 1192; assay: Assimilation test by intestinal microorganism; assay type: cell-based; settings: 0.5 w/v % saccharide in PYF broth, 37° C., 96 hours; free of sugar: -
[6] = system: Bifidobacterium infantis JCM 1222; assay: Assimilation test by intestinal microorganism; assay type: cell-based; settings: 0.5 w/v % saccharide in PYF broth, 37° C., 96 hours; free of sugar: -
[7] = system: Lactobacillus fermentum IFO 3959; assay: Assimilation test by intestinal microorganism; assay type: cell-based; settings: 0.5 w/v % saccharide in PYF broth, 37° C., 96 hours; free of sugar: -
[8] = system: Lactobacillus plantarum IFO 3070; assay: Assimilation test by intestinal microorganism; assay type: cell-based; settings: 0.5 w/v % saccharide in PYF broth, 37° C., 96 hours; free of sugar: -
[9] = system: Enzyme from small intestinal mucus membrane
[10] = biological target: T1, Salivary amylase (Homo sapiens, UniProt P0DUB6); assay: in vitro
T1 sequence (P0DUB6 16-511): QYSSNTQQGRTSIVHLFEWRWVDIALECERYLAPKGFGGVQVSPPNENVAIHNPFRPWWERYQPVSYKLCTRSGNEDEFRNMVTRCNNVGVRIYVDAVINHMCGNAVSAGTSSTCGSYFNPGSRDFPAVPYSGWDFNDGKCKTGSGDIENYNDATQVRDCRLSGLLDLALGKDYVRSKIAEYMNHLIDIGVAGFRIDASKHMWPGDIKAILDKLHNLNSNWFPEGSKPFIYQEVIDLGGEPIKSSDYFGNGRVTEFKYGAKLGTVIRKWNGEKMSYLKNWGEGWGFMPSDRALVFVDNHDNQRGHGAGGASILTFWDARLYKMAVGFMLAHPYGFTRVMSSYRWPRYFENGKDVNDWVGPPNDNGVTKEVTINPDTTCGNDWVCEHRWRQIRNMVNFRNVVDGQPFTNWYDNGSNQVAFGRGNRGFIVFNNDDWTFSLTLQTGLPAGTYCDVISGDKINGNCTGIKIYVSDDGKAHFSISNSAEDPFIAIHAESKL

[11] = in vitro; settings: gastric acid
[12] = in vitro; settings: small intestinal mucosa enzyme

Question: For `OC[C@H]1O[C@H](OC[C@H]2O[C@H](O[C@H]3O[C@H](CO[C@H]4O[C@H](CO)[C@@H](O)[C@H](O)[C@H]4O)[C@@H](O)[C@H](O)[C@H]3O)[C@H](O)[C@@H](O)[C@@H]2O)[C@H](O)[C@@H](O)[C@@H]1O` [α-Isomaltosyl α-isomaltoside, O-α-D-glucopyranosyl -(1→6)-α-D-glucopyranosyl-O-α-D-glucopyranosyl-(1→6) -α-D-glucopyranoside], which pH of feces ([1]; After 10 g orally daily for 14 days, mean ± SD) is on record?
Answer: 5.9± 0.3

Question: Which “Relative changes of feces' weight” value ([1]; After 10 g orally daily for 14 days, before = 100) does the source give for `OC[C@H]1O[C@H](OC[C@H]2O[C@H](O[C@H]3O[C@H](CO)[C@@H](O)[C@H](O)[C@H]3O)[C@H](O)[C@@H](O)[C@@H]2O)[C@H](O)[C@@H](O)[C@@H]1O` [O-α-D-glucopyranosyl -(1→6)-α-D-glucopyranosyl α-D-glucopyranoside] here?
Answer: 112

Question: And the “Relative changes of feces' weight” value ([1]; […])?
Answer: 100

Question: What does the source list for `OC[C@H]1O[C@H](OC[C@H]2O[C@H](OC[C@H]3O[C@H](O[C@H]4O[C@H](CO)[C@@H](O)[C@H](O)[C@H]4O)[C@H](O)[C@@H](O)[C@@H]3O)[C@H](O)[C@@H](O)[C@@H]2O)[C@H](O)[C@@H](O)[C@@H]1O` [α-Isomaltotriosyl α-glucoside, O-α-D-glucopyranosyl-(1→6)-O-α-D-glucopyranosyl-(1→6) α-D-glucopyranosyl α-D-glucopyranoside]?
Answer: Judgement of assimilation (turbidity at 750 nm, ×5) [2]: +++ (0.3 or higher); Judgement of assimilation (turbidity at 750 nm, ×5) [3]: +++ (0.3 or higher); Judgement of assimilation (turbidity at 750 nm, ×5) [4]: ++ (0.2 or higher but less than 0.3); Judgement of assimilation (turbidity at 750 nm, ×5) [5]: +++ (0.3 or higher); Judgement of assimilation (turbidity at 750 nm, ×5) [6]: ++ (0.2 or higher but less than 0.3); Judgement of assimilation (turbidity at 750 nm, ×5) [7]: - (Less than 0.1); Judgement of assimilation (turbidity at 750 nm, ×5) [8]: - (Less than 0.1); Digestibility, judgement in words [9]: relatively-low in digestibility; metabolised [10]: 0%; degraded [11]: 0%; metabolised [12]: 8.8%
